# The supplement of paper PMC8728848
# This is one part of the list.
# B1: AT5G01260(PC)(40) (Arabidopsis thaliana), Q9LFB0 (protein)
# chain: MIGIGRTLTSSSPSKIILEDLPPGIYRYGTEIFTSVPRKTFHHIKFLRLDSAQSSRILKPVPLRSSSIKDSQVNVEDEEIEASNKTVRVRFQLRKECVFGEHFFIVGDDPVFGGLWDPETALPLNWSDGNVWTVDLDLPVGRLVEFKLLLKAQTGEILWQPGPNRALETWETNKTIRICEDWDNADLQMMIEEDFVPYTNISSIGSEDEDEVLGSVQQNSSVVAVENAGYVSDESAQNSSFSIQSEKTMEPSNGALTAREVIKEAMFTEEESPVLVPGLIPLSDLDNEQVEVINEGKAETFPEVDKKQEPKAERNKKAKVKAISLFEKSEQEAVKSVEQRQYNAVEEEQQRLETEPLGTPDVLFENDIQWGRRTLYKLLSNFRLF
# Columns and labels:
# Experiment in all cases: glycan array binding signal (z-score within array); higher = stronger binding
# Conditions in all cases: glycan notation: IUPAC condensed, linker removed
# [1] = target: Gal(b1-4)GlcNAc(b1-3)Gal(b1-4)GlcNAc(b1-2)Man(a1-3)[Gal(b1-4)GlcNAc(b1-3)Gal(b1-4)GlcNAc(b1-2)Man(a1-6)]Man(b1-4)GlcNAc(b1-4)[Fuc(a1-6)]GlcNAc
# Method in brief: (§1)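 Glycan array data came from 3228 arrays in the Consortium for Functional Glycomics database, and only arrays with an available protein sequence were kept. Glycan names were put into IUPAC-condensed notation, and columns mapping to the same glycan were averaged. The binding signal is a within-array Z-score, averaged across arrays of one protein sequence run at different concentrations or buffers and across linkers. A negative Z-score can be read as non-binding.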
# [2] = target: Gal(b1-4)GlcNAc(b1-3)Gal(b1-4)GlcNAc(b1-2)[Gal(b1-4)GlcNAc(b1-3)Gal(b1-4)GlcNAc(b1-6)]Man(a1-6)[Gal(b1-4)GlcNAc(b1-3)Gal(b1-4)GlcNAc(b1-2)Man(a1-3)]Man(b1-4)GlcNAc(b1-4)GlcNAc
# Method in brief: as §1
# [3] = target: Gal(b1-4)GlcNAc(b1-3)Gal(b1-4)GlcNAc(b1-2)[Gal(b1-4)GlcNAc(b1-3)Gal(b1-4)GlcNAc(b1-6)]Man(a1-6)[Gal(b1-4)GlcNAc(b1-3)Gal(b1-4)GlcNAc(b1-2)Man(a1-3)]Man(b1-4)GlcNAc(b1-4)[Fuc(a1-6)]GlcNAc
# Method in brief: as §1
# [4] = target: Gal(b1-4)GlcNAc(b1-3)Gal(b1-4)GlcNAc(b1-3)Gal(b1-4)GlcNAc
# Method in brief: as §1
# [5] = target: Gal(b1-4)GlcNAc(b1-3)Gal(b1-4)GlcNAc(b1-3)Gal(b1-4)GlcNAc(b1-2)Man(a1-3)[Gal(b1-4)GlcNAc(b1-3)Gal(b1-4)GlcNAc(b1-3)Gal(b1-4)GlcNAc(b1-2)Man(a1-6)]Man(b1-4)GlcNAc(b1-4)GlcNAc
# Method in brief: as §1
# [6] = target: Gal(b1-4)GlcNAc(b1-3)Gal(b1-4)GlcNAc(b1-3)Gal(b1-4)GlcNAc(b1-2)Man(a1-3)[Gal(b1-4)GlcNAc(b1-3)Gal(b1-4)GlcNAc(b1-3)Gal(b1-4)GlcNAc(b1-2)Man(a1-6)]Man(b1-4)GlcNAc(b1-4)[Fuc(a1-6)]GlcNAc
# Method in brief: as §1
# [7] = target: Gal(b1-4)GlcNAc(b1-3)Gal(b1-4)GlcNAc(b1-3)Gal(b1-4)GlcNAc(b1-2)[Gal(b1-4)GlcNAc(b1-3)Gal(b1-4)GlcNAc(b1-3)Gal(b1-4)GlcNAc(b1-6)]Man(a1-6)[Gal(b1-4)GlcNAc(b1-3)Gal(b1-4)GlcNAc(b1-3)Gal(b1-4)GlcNAc(b1-2)Man(a1-3)]Man(b1-4)GlcNAc(b1-4)[Fuc(a1-6)]GlcNAc
# Method in brief: as §1
# [8] = target: Gal(b1-4)GlcNAc(b1-3)Gal(b1-4)GlcNAc(b1-3)Gal(b1-4)GlcNAc(b1-3)Gal(b1-4)GlcNAc(b1-2)Man(a1-3)[Gal(b1-4)GlcNAc(b1-3)Gal(b1-4)GlcNAc(b1-3)Gal(b1-4)GlcNAc(b1-3)Gal(b1-4)GlcNAc(b1-2)Man(a1-6)]Man(b1-4)GlcNAc(b1-4)GlcNAc
# Method in brief: as §1
# [9] = target: Gal(b1-4)GlcNAc(b1-3)Gal(b1-4)GlcNAc(b1-3)Gal(b1-4)GlcNAc(b1-3)Gal(b1-4)GlcNAc(b1-2)Man(a1-3)[Gal(b1-4)GlcNAc(b1-3)Gal(b1-4)GlcNAc(b1-3)Gal(b1-4)GlcNAc(b1-3)Gal(b1-4)GlcNAc(b1-2)Man(a1-6)]Man(b1-4)GlcNAc(b1-4)[Fuc(a1-6)]GlcNAc
# Method in brief: as §1
# [10] = target: Gal(b1-4)GlcNAc(b1-3)Gal(b1-4)GlcNAc(b1-3)Gal(b1-4)GlcNAc(b1-3)Gal(b1-4)GlcNAc(b1-2)[Gal(b1-4)GlcNAc(b1-3)Gal(b1-4)GlcNAc(b1-3)Gal(b1-4)GlcNAc(b1-3)Gal(b1-4)GlcNAc(b1-6)]Man(a1-6)[Gal(b1-4)GlcNAc(b1-3)Gal(b1-4)GlcNAc(b1-3)Gal(b1-4)GlcNAc(b1-3)Gal(b1-4)GlcNAc(b1-2)Man(a1-3)]Man(b1-4)GlcNAc(b1-4)[Fuc(a1-6)]GlcNAc
# Method in brief: as §1
# [11] = target: Gal(b1-4)GlcNAc(b1-3)Gal(b1-4)GlcNAc(b1-3)Gal(b1-4)GlcNAc(b1-3)Gal(b1-4)GlcNAc(b1-3)Gal(b1-4)GlcNAc(b1-2)Man(a1-3)[Gal(b1-4)GlcNAc(b1-3)Gal(b1-4)GlcNAc(b1-3)Gal(b1-4)GlcNAc(b1-3)Gal(b1-4)GlcNAc(b1-3)Gal(b1-4)GlcNAc(b1-2)Man(a1-6)]Man(b1-4)GlcNAc(b1-4)GlcNAc
# Method in brief: as §1
# [12] = target: Gal(b1-4)GlcNAc(b1-3)Gal(b1-4)GlcNAc(b1-3)Gal(b1-4)GlcNAc(b1-3)Gal(b1-4)GlcNAc(b1-3)Gal(b1-4)GlcNAc(b1-2)Man(a1-3)[Gal(b1-4)GlcNAc(b1-3)Gal(b1-4)GlcNAc(b1-3)Gal(b1-4)GlcNAc(b1-3)Gal(b1-4)GlcNAc(b1-3)Gal(b1-4)GlcNAc(b1-2)Man(a1-6)]Man(b1-4)GlcNAc(b1-4)[Fuc(a1-6)]GlcNAc
# Method in brief: as §1
# [13] = target: Gal(b1-4)GlcNAc(b1-3)Gal(b1-4)GlcNAc(b1-3)Gal(b1-4)GlcNAc(b1-3)Gal(b1-4)GlcNAc(b1-3)Gal(b1-4)GlcNAc(b1-2)[Gal(b1-4)GlcNAc(b1-3)Gal(b1-4)GlcNAc(b1-3)Gal(b1-4)GlcNAc(b1-3)Gal(b1-4)GlcNAc(b1-3)Gal(b1-4)GlcNAc(b1-6)]Man(a1-6)[Gal(b1-4)GlcNAc(b1-3)Gal(b1-4)GlcNAc(b1-3)Gal(b1-4)GlcNAc(b1-3)Gal(b1-4)GlcNAc(b1-3)Gal(b1-4)GlcNAc(b1-2)Man(a1-3)]Man(b1-4)GlcNAc(b1-4)[Fuc(a1-6)]GlcNAc
# Method in brief: as §1
# [14] = target: Gal(b1-4)GlcNAc(b1-3)Gal(b1-4)GlcNAc(b1-3)Gal(b1-4)GlcNAc(b1-3)Gal(b1-4)GlcNAc(b1-3)Gal(b1-4)GlcNAc(b1-3)Gal(b1-4)GlcNAc(b1-2)Man(a1-3)[Gal(b1-4)GlcNAc(b1-3)Gal(b1-4)GlcNAc(b1-3)Gal(b1-4)GlcNAc(b1-3)Gal(b1-4)GlcNAc(b1-3)Gal(b1-4)GlcNAc(b1-3)Gal(b1-4)GlcNAc(b1-2)Man(a1-6)]Man(b1-4)GlcNAc(b1-4)GlcNAc
# Method in brief: as §1
# [15] = target: Gal(b1-4)GlcNAc(b1-3)Gal(b1-4)GlcNAc(b1-3)GalNAc
# Method in brief: as §1
# [16] = target: Gal(b1-4)GlcNAc(b1-3)Gal(b1-4)GlcNAc(b1-3)[Gal(b1-4)GlcNAc(b1-3)Gal(b1-4)GlcNAc(b1-6)]GalNAc
# Method in brief: as §1
# [17] = target: Gal(b1-4)GlcNAc(b1-3)Gal(b1-4)GlcNAc(b1-6)[Gal(b1-3)]GalNAc
# Method in brief: as §1
# [18] = target: Gal(b1-4)GlcNAc(b1-3)Gal(b1-4)[Fuc(a1-3)]GlcNAc(b1-3)Gal(b1-4)[Fuc(a1-3)]GlcNAc
# Method in brief: as §1
# [19] = target: Gal(b1-4)GlcNAc(b1-3)GalNAc
# Method in brief: as §1
# [20] = target: Gal(b1-4)GlcNAc(b1-3)[Fuc(a1-3)GlcNAc(b1-6)]Gal(b1-4)Glc
# Method in brief: as §1
# [21] = target: Gal(b1-4)GlcNAc(b1-3)[Gal(b1-4)GlcNAc(b1-6)]Gal(b1-4)GlcNAc
# Method in brief: as §1
# [22] = target: Gal(b1-4)GlcNAc(b1-3)[GlcNAc(b1-6)]Gal(b1-4)GlcNAc
# Method in brief: as §1
# [23] = target: Gal(b1-4)GlcNAc(b1-6)Gal(b1-4)GlcNAc
# Method in brief: as §1
# [24] = target: Gal(b1-4)GlcNAc(b1-6)GalNAc
# Method in brief: as §1
# [25] = target: Gal(b1-4)GlcNAc(b1-6)[Gal(b1-3)]GalNAc
# Method in brief: as §1
# [26] = target: Gal(b1-4)GlcNAc(b1-6)[Gal(b1-4)GlcNAc(b1-3)]GalNAc
# Method in brief: as §1
# Gal(b1-4)GlcNAc6P = target: Gal(b1-4)GlcNAc6P
# Method in brief: as §1
# Gal(b1-6)Gal = target: Gal(b1-6)Gal
# Method in brief: as §1
# Gal3S(b1-3)GalNAc = target: Gal3S(b1-3)GalNAc
# Method in brief: as §1
# Gal3S(b1-3)GlcNAc = target: Gal3S(b1-3)GlcNAc
# Method in brief: as §1
# [27] = target: Gal3S(b1-3)[Fuc(a1-4)]GlcNAc
# Method in brief: as §1
# Gal3S(b1-4)Glc = target: Gal3S(b1-4)Glc
# Method in brief: as §1
# Gal3S(b1-4)Glc6S = target: Gal3S(b1-4)Glc6S
# Method in brief: as §1
# Gal3S(b1-4)GlcNAc = target: Gal3S(b1-4)GlcNAc
# Method in brief: as §1
# [28] = target: Gal3S(b1-4)[Fuc(a1-3)]Glc6S
# Method in brief: as §1
# [29] = target: Gal3S(b1-4)[Fuc(a1-3)]GlcNAc
# Method in brief: as §1
# [30] = target: Gal3S(b1-4)[Fuc(a1-3)]GlcNAc6S
# Method in brief: as §1
binder,measurement,setting,value
B1,glycan array binding signal (z-score),[1],-0.167
same,glycan array binding signal (z-score),[2],-0.214
same,glycan array binding signal (z-score),[3],-0.426
same,glycan array binding signal (z-score),[4],-0.139
same,glycan array binding signal (z-score),[5],-0.064
same,glycan array binding signal (z-score),[6],0.725
same,glycan array binding signal (z-score),[7],0.662
same,glycan array binding signal (z-score),[8],-0.315
same,glycan array binding signal (z-score),[9],-0.075
same,glycan array binding signal (z-score),[10],-0.1
same,glycan array binding signal (z-score),[11],-0.397
same,glycan array binding signal (z-score),[12],-0.581
same,glycan array binding signal (z-score),[13],0.89
same,glycan array binding signal (z-score),[14],-0.264
same,glycan array binding signal (z-score),[15],0.383
same,glycan array binding signal (z-score),[16],-0.184
same,glycan array binding signal (z-score),[17],0.462
same,glycan array binding signal (z-score),[18],-0.623
same,glycan array binding signal (z-score),[19],-0.184
same,glycan array binding signal (z-score),[20],-0.229
same,glycan array binding signal (z-score),[21],0.104
same,glycan array binding signal (z-score),[22],-0.442
same,glycan array binding signal (z-score),[23],-0.598
same,glycan array binding signal (z-score),[24],0.07
same,glycan array binding signal (z-score),[25],-0.341
same,glycan array binding signal (z-score),[26],-0.088
same,glycan array binding signal (z-score),Gal(b1-4)GlcNAc6P,0.092
same,glycan array binding signal (z-score),Gal(b1-6)Gal,-0.292
same,glycan array binding signal (z-score),Gal3S(b1-3)GalNAc,0.582
same,glycan array binding signal (z-score),Gal3S(b1-3)GlcNAc,0.245
same,glycan array binding signal (z-score),[27],0.473
same,glycan array binding signal (z-score),Gal3S(b1-4)Glc,-0.346
same,glycan array binding signal (z-score),Gal3S(b1-4)Glc6S,0.724
same,glycan array binding signal (z-score),Gal3S(b1-4)GlcNAc,-0.288
same,glycan array binding signal (z-score),[28],4.34
same,glycan array binding signal (z-score),[29],-0.128
same,glycan array binding signal (z-score),[30],0.239
